This is one part of the list.
What was measured:
Assay in all cases: glycan array binding signal (z-score within array); higher = stronger binding
Settings in all cases: glycan notation: IUPAC condensed, linker removed
[1] = biological target: GalNAc(a1-3)GalNAc(b1-3)Gal(a1-4)Gal(b1-4)GlcNAc
Procedure, shortened: (§1)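 The Consortium for Functional Glycomics database supplied 3228 glycan arrays, of which those lacking an available protein sequence were dropped. The binding signal, a within-array Z-score, was averaged across arrays of the same protein sequence and across linkers. Negative scores can be read as non-binding.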

[2] = biological target: GalNAc(b1-3)Gal
Procedure, shortened: as §1

[3] = biological target: GalNAc(b1-3)Gal(a1-4)Gal(b1-4)GlcNAc
Procedure, shortened: as §1

[4] = biological target: GalNAc(b1-3)Gal(a1-4)Gal(b1-4)GlcNAc(b1-3)Gal(b1-4)Glc
Procedure, shortened: as §1

[5] = biological target: GalNAc(b1-3)Gal(a1-6)Gal(b1-4)Glc
Procedure, shortened: as §1

[6] = biological target: GalNAc(b1-3)GalNAc
Procedure, shortened: as §1

[7] = biological target: GalNAc(b1-4)Gal(b1-4)Glc
Procedure, shortened: as §1

[8] = biological target: GalNAc(b1-4)GlcNAc
Procedure, shortened: as §1

[9] = biological target: GalNAc(b1-4)GlcNAc(b1-2)Man(a1-3)[GalNAc(b1-4)GlcNAc(b1-2)Man(a1-6)]Man(b1-4)GlcNAc(b1-4)GlcNAc
Procedure, shortened: as §1

[10] = biological target: GalNAc(b1-4)GlcNAc6S
Procedure, shortened: as §1

[11] = biological target: GalNAc(b1-6)GalNAc
Procedure, shortened: as §1

[12] = biological target: GalNAc3S(b1-4)GlcNAc
Procedure, shortened: as §1

[13] = biological target: GalNAc3S(b1-4)GlcNAc3S
Procedure, shortened: as §1

[14] = biological target: GalNAc4S6S(b1-4)GlcNAc
Procedure, shortened: as §1

[15] = biological target: GalNAc6S(b1-4)GlcNAc
Procedure, shortened: as §1

[16] = biological target: Glc(a1-4)Glc
Procedure, shortened: as §1

[17] = biological target: Glc(a1-4)Glc(a1-4)Glc(a1-4)Glc
Procedure, shortened: as §1

[18] = biological target: Glc(a1-6)Glc(a1-6)Glc
Procedure, shortened: as §1

[19] = biological target: Glc(a1-6)Glc(a1-6)Glc(a1-6)Glc
Procedure, shortened: as §1

[20] = biological target: Glc(b1-4)Glc
Procedure, shortened: as §1

[21] = biological target: Glc(b1-6)Glc
Procedure, shortened: as §1

[22] = biological target: GlcA(b1-3)Gal
Procedure, shortened: as §1

[23] = biological target: GlcA(b1-3)GlcNAc
Procedure, shortened: as §1

[24] = biological target: GlcA(b1-6)Gal
Procedure, shortened: as §1

[25] = biological target: GlcNAc(a1-3)Gal(b1-4)GlcNAc
Procedure, shortened: as §1

[26] = biological target: GlcNAc(a1-4)Gal(b1-3)GlcNAc
Procedure, shortened: as §1

[27] = biological target: GlcNAc(a1-4)Gal(b1-4)GalNAc
Procedure, shortened: as §1

[28] = biological target: GlcNAc(a1-4)Gal(b1-4)GlcNAc
Procedure, shortened: as §1

[29] = biological target: GlcNAc(a1-4)Gal(b1-4)GlcNAc(b1-3)Gal(b1-4)Glc
Procedure, shortened: as §1

[30] = biological target: GlcNAc(a1-4)Gal(b1-4)GlcNAc(b1-3)Gal(b1-4)GlcNAc
Procedure, shortened: as §1

[31] = biological target: GlcNAc(a1-4)Gal(b1-4)GlcNAc(b1-3)Gal(b1-4)GlcNAc(b1-3)Gal(b1-4)GlcNAc
Procedure, shortened: as §1

[32] = biological target: GlcNAc(a1-4)Gal(b1-4)GlcNAc(b1-3)Gal(b1-4)[Fuc(a1-3)]GlcNAc(b1-3)Gal(b1-4)[Fuc(a1-3)]GlcNAc
Procedure, shortened: as §1

[33] = biological target: GlcNAc(a1-6)Gal(b1-4)GlcNAc
Procedure, shortened: as §1

[34] = biological target: GlcNAc(b1-2)Gal(b1-3)GalNAc
Procedure, shortened: as §1

[35] = biological target: GlcNAc(b1-2)Man(a1-3)[GlcNAc(b1-2)Man(a1-6)]Man(b1-4)GlcNAc(b1-4)GlcNAc
Procedure, shortened: as §1

[36] = biological target: GlcNAc(b1-2)Man(a1-3)[GlcNAc(b1-2)Man(a1-6)]Man(b1-4)GlcNAc(b1-4)[Fuc(a1-6)]GlcNAc
Procedure, shortened: as §1

[37] = biological target: GlcNAc(b1-2)Man(a1-3)[GlcNAc(b1-4)][GlcNAc(b1-2)Man(a1-6)]Man(b1-4)GlcNAc(b1-4)GlcNAc
Procedure, shortened: as §1

[38] = biological target: GlcNAc(b1-2)[GlcNAc(b1-4)]Man(a1-3)[GlcNAc(b1-2)Man(a1-6)]Man(b1-4)GlcNAc(b1-4)GlcNAc
Procedure, shortened: as §1

[39] = biological target: GlcNAc(b1-2)[GlcNAc(b1-4)]Man(a1-3)[GlcNAc(b1-4)][GlcNAc(b1-2)Man(a1-6)]Man(b1-4)GlcNAc(b1-4)GlcNAc
Procedure, shortened: as §1

[40] = biological target: GlcNAc(b1-2)[GlcNAc(b1-4)]Man(a1-3)[GlcNAc(b1-4)][GlcNAc(b1-2)[GlcNAc(b1-6)]Man(a1-6)]Man(b1-4)GlcNAc(b1-4)GlcNAc
Procedure, shortened: as §1

[41] = biological target: GlcNAc(b1-2)[GlcNAc(b1-4)]Man(a1-3)[GlcNAc(b1-4)][GlcNAc(b1-2)[GlcNAc(b1-6)]Man(a1-6)]Man(b1-4)GlcNAc(b1-4)[Fuc(a1-6)]GlcNAc
Procedure, shortened: as §1

[42] = biological target: GlcNAc(b1-2)[GlcNAc(b1-6)]Man(a1-6)[GlcNAc(b1-2)Man(a1-3)]Man(b1-4)GlcNAc(b1-4)GlcNAc
Procedure, shortened: as §1

[43] = biological target: GlcNAc(b1-2)[GlcNAc(b1-6)]Man(a1-6)[GlcNAc(b1-2)Man(a1-3)]Man(b1-4)GlcNAc(b1-4)[Fuc(a1-6)]GlcNAc
Procedure, shortened: as §1

[44] = biological target: GlcNAc(b1-2)[GlcNAc(b1-6)]Man(a1-6)[GlcNAc(b1-2)Man(a1-3)][GlcNAc(b1-4)]Man(b1-4)GlcNAc(b1-4)GlcNAc
Procedure, shortened: as §1

[45] = biological target: GlcNAc(b1-3)Gal
Procedure, shortened: as §1

B1: CCL1 (Coprinopsis cinerea) (protein)
chain: MDTQAKPPAGRYVIYNRVLSPNGEKLALTYPGYQREALTLTPLHHSANQIWILNNWDATTSSLTPETARNTQVGWGSGNVPIVLPPGNYVWTLASSAGGYIIQDGGKTVYWNAGEAVANTKVSIGGDNGLQARWIFERV
glycan array binding signal (z-score) [1]: -0.166
glycan array binding signal (z-score) [2]: -0.169
glycan array binding signal (z-score) [3]: -0.118
glycan array binding signal (z-score) [4]: -0.158
glycan array binding signal (z-score) [5]: -0.111
glycan array binding signal (z-score) [6]: -0.168
glycan array binding signal (z-score) [7]: -0.124
glycan array binding signal (z-score) [8]: -0.159
glycan array binding signal (z-score) [9]: -0.144
glycan array binding signal (z-score) [10]: -0.137
glycan array binding signal (z-score) [11]: -0.163
glycan array binding signal (z-score) [12]: -0.125
glycan array binding signal (z-score) [13]: -0.069
glycan array binding signal (z-score) [14]: -0.107
glycan array binding signal (z-score) [15]: -0.156
glycan array binding signal (z-score) [16]: -0.117
glycan array binding signal (z-score) [17]: -0.127
glycan array binding signal (z-score) [18]: -0.13
glycan array binding signal (z-score) [19]: -0.137
glycan array binding signal (z-score) [20]: -0.115
glycan array binding signal (z-score) [21]: -0.128
glycan array binding signal (z-score) [22]: -0.096
glycan array binding signal (z-score) [23]: -0.145
glycan array binding signal (z-score) [24]: -0.129
glycan array binding signal (z-score) [25]: -0.139
glycan array binding signal (z-score) [26]: -0.154
glycan array binding signal (z-score) [27]: 0.005
glycan array binding signal (z-score) [28]: -0.145
glycan array binding signal (z-score) [29]: -0.127
glycan array binding signal (z-score) [30]: -0.126
glycan array binding signal (z-score) [31]: -0.135
glycan array binding signal (z-score) [32]: 0.517
glycan array binding signal (z-score) [33]: -0.136
glycan array binding signal (z-score) [34]: -0.116
glycan array binding signal (z-score) [35]: -0.122
glycan array binding signal (z-score) [36]: -0.153
glycan array binding signal (z-score) [37]: -0.17
glycan array binding signal (z-score) [38]: -0.15
glycan array binding signal (z-score) [39]: -0.142
glycan array binding signal (z-score) [40]: -0.141
glycan array binding signal (z-score) [41]: -0.163
glycan array binding signal (z-score) [42]: -0.148
glycan array binding signal (z-score) [43]: -0.139
glycan array binding signal (z-score) [44]: -0.143
glycan array binding signal (z-score) [45]: -0.138

From the supplement of paper PMC8728848
